Results: the supplement of paper PMC8512760
The list shows a part of the results. Single values are uncertain, as repeats are few or missing.

Assays:
Test in all cases: cell viability relative to vehicle (% of vehicle); basal-like triple-negative breast cancer lines; higher = less cytotoxic
Settings in all cases: 10 µM; 72 h
HCC-1143 = test system: HCC-1143
HCC-1187 = test system: HCC-1187
MDA-468 = test system: MDA-468
SUM-149 = test system: SUM-149
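Further: stably firefly luciferase-GFP labeled cells in 96-well plates, viability read as luciferase photon flux after d-luciferin addition, treated wells normalized to vehicle wells, single-dose high-throughput screen.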

For `Nc1nc(Cl)nc2c1ncn2C1CC(O)C(CO)O1` (centres undefined) [Cladribine], the cell viability (HCC-1143) was 58.2, the cell viability (HCC-1187) was 51.1 and the cell viability (MDA-468) was 93.8.
In the case of `CC(=O)OCC(=O)[C@@]12OC(C)(C)O[C@@H]1C[C@H]1[C@@H]3C[C@H](F)C4=CC(=O)C=C[C@]4(C)[C@@]3(F)[C@@H](O)C[C@@]12C` [Fluocinonide], the cell viability (HCC-1143) is reported as 96.2, the cell viability (HCC-1187) is reported as 82.9 and the cell viability (MDA-468) is reported as 173.
With `c1ccc2[nH]c(-c3cscn3)nc2c1` [Thiabendazole] the cell viability (HCC-1143) was 156.
`Cn1nnc(-c2ccc(-c3ccc(N4CC(CO)OC4=O)cc3F)cn2)n1` (centres undefined) [Tedizolid] showed a cell viability (HCC-1143) of 196 and a cell viability (HCC-1187) of 185.
`CCCCc1nc2cc(C=CC(=O)NO)ccc2n1CCN(CC)CC` [Pracinostat (SB939)] gave a cell viability (HCC-1143) of 43, a cell viability (HCC-1187) of 31.1 and a cell viability (MDA-468) of 43.4.
Compound `CCCC1O[C@@H]2C[C@H]3[C@@H]4CCC5=CC(=O)C=C[C@]5(C)[C@H]4[C@@H](O)C[C@]3(C)[C@]2(C(=O)CO)O1` (some centres undefined) [Budesonide] has a cell viability (HCC-1143) of 83.9, a cell viability (HCC-1187) of 90.8 and a cell viability (MDA-468) of 161. It also gave a cell viability (SUM-149) of 155.
For `O=C1C=CC=CC1=C1NC(=C2C=CC=CC2=O)N(c2ccc(C(=O)O)cc2)N1` [Deferasirox], the cell viability (HCC-1143) was 61.3, the cell viability (HCC-1187) was 66.3 and the cell viability (MDA-468) was 80.6.
In the case of `CCC(=O)OC1(C(=O)CCl)C(C)CC2C3CCC4=CC(=O)C=CC4(C)C3(F)C(O)CC21C` (centres undefined) [Clobetasol propionate], the cell viability (HCC-1143) is reported as 78.7, the cell viability (HCC-1187) is reported as 90.9 and the cell viability (MDA-468) is reported as 158.
With `Cc1[nH]c2ccccc2c1CCNCc1ccc(C=CC(=O)NO)cc1` [Panobinostat (LBH589)] the cell viability (HCC-1143) was 37.3, the cell viability (HCC-1187) was 22.5 and the cell viability (MDA-468) was 23.2.
`CC(NCc1ccc(OCc2cccc(F)c2)cc1)C(N)=O.CS(=O)(=O)O` (centres undefined) [Safinamide Mesylate] was tested, and the cell viability (HCC-1143) was 171, the cell viability (HCC-1187) was 75 and the cell viability (MDA-468) was 158.
`COc1ccc(-c2cc(=O)c3c(O)cc(O)cc3o2)cc1O` [Diosmetin] was tested, and the cell viability (HCC-1143) was 113 and the cell viability (HCC-1187) was 120.
Work on `CC1CC2C3CCC4=CC(=O)C=CC4(C)C3(F)C(O)CC2(C)C1(O)C(=O)CO` (centres undefined) [Betamethasone] yielded a cell viability (HCC-1143) of 82.4, a cell viability (HCC-1187) of 105 and a cell viability (MDA-468) of 178.
With `Nc1nc2[nH][nH]nc-2c(=O)n1` [Azaguanine-8] the cell viability (HCC-1143) was 121, the cell viability (HCC-1187) was 108 and the cell viability (MDA-468) was 143.
Work on `C1CNCCN1.C[C@@]12CC[C@H]3c4ccc(OS(=O)(=O)O)cc4CC[C@H]3[C@H]1CCC2=O` [Estropipate] yielded a cell viability (HCC-1143) of 79.8, a cell viability (HCC-1187) of 94.1 and a cell viability (MDA-468) of 126. For the same compound, the cell viability (SUM-149) was 129.
Compound `Cc1cc(C2CCCCC2)n(O)c(=O)c1.NCCO` [Ciclopirox ethanolamine] has a cell viability (HCC-1143) of 59.2, a cell viability (HCC-1187) of 65 and a cell viability (MDA-468) of 33.3.
`COc1cc2nc(N3CCN(C(=O)C4COc5ccccc5O4)CC3)nc(N)c2cc1OC.CS(=O)(=O)O` (centres undefined) [Doxazosin Mesylate] was tested, and the cell viability (HCC-1143) was 106, the cell viability (HCC-1187) was 99.5 and the cell viability (MDA-468) was 103. It also gave a cell viability (SUM-149) of 91.
With `Nc1nc(Cl)nc2c1ncn2C1OC(CO)C(O)C1F` (centres undefined) [Clofarabine] the cell viability (HCC-1143) was 73.3, the cell viability (HCC-1187) was 61.9 and the cell viability (MDA-468) was 61.
Compound `[O-]n1ccccc1=S.[O-]n1ccccc1=S.[Zn+2]` [Zinc Pyrithione] has a cell viability (HCC-1143) of 79.5, a cell viability (HCC-1187) of 31.6 and a cell viability (MDA-468) of 52.7.
With `Nc1ccccc1NC(=O)c1ccc(CNc2nccc(-c3cccnc3)n2)cc1` [Mocetinostat (MGCD0103, MG0103)] the cell viability (HCC-1143) was 102, the cell viability (HCC-1187) was 72.5 and the cell viability (MDA-468) was 92.7.
`CN1CCc2nc(C(=O)NC3CC(C(=O)N(C)C)CCC3NC(=O)C(=O)Nc3ccc(Cl)cn3)sc2C1.Cc1ccc(S(=O)(=O)O)cc1.O` (centres undefined) [Edoxaban tosylate monohydrate] was tested, and the cell viability (HCC-1143) was 89.1, the cell viability (HCC-1187) was 106 and the cell viability (MDA-468) was 84.3. It also gave a cell viability (SUM-149) of 126.
Work on `CCc1cnn2c(NCc3ccc[n+]([O-])c3)cc(N3CCCCC3CCO)nc12` (centres undefined) yielded a cell viability (HCC-1143) of 45.6, a cell viability (HCC-1187) of 33.8 and a cell viability (MDA-468) of 41.1.
`CC(=O)c1c(C)c2cnc(Nc3ccc(N4CCNCC4)cn3)nc2n(C2CCCC2)c1=O.O=S(=O)(O)CCO` gave a cell viability (HCC-1143) of 111, a cell viability (HCC-1187) of 92.3 and a cell viability (MDA-468) of 102.
`O=c1[nH]c(=O)n(C2CC(O)C(CO)O2)cc1C(F)(F)F` (centres undefined) [Triflurdine (Viroptic)] showed a cell viability (HCC-1143) of 62.7, a cell viability (HCC-1187) of 117 and a cell viability (MDA-468) of 113.
